# Reference: article PMC11403517
# Results are given in words; binding and its absence hold for the method and conditions named. Binding seen in cells or lysates may run through a third protein. Some entries that bind do so weakly or less than the wild type. For some of these results: Where a sequence is shown, tags or fusion partners need not be part of it.
# T1: GFP-IRF3 (UniProt Q14653)
# T1 sequence: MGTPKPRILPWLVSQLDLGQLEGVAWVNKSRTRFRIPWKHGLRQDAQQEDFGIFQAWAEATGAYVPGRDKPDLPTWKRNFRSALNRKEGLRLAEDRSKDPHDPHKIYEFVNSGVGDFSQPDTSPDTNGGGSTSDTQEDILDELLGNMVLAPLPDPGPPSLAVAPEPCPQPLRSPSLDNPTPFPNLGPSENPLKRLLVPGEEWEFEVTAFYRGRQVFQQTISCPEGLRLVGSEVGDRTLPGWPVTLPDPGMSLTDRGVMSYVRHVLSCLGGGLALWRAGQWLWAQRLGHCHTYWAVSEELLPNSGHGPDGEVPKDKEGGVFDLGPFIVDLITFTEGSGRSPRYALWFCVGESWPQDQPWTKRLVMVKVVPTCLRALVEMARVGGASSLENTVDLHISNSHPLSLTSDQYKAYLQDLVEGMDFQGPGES
# B1: Epstein-Barr virus nuclear antigen 3A (EBNA3A), as expressed in the co-immunoprecipitations of Figures 4C and 5E (protein, UniProt P12977 1-944)
# chain: MDKDRPGPPALDDNMEEEVPSTSVVQEQVSAGDWENVLIELSDSSSEKEAEDAHLEPAQKGTKRKRVDHDAGGSAPARPMLPPQPDLPGREAILRRFPLDLRTLLQAIGAAATRIDTRAIDQFFGSQISNTEMYIMYAMAIRQAIRDRRRNPASRRDQAKWRLQTLAAGWPMGYQAYSSWMYSYTDHQTTPTFVHLQATLGCTGGRRCHVTFSAGTFKLPRCTPGDRQWLYVQSSVGNIVQSCNPRYSIFFDYMAIHRSLTKIWEEVLTPDQRVSFMEFLGFLQRTDLSYIKSFVSDALGTTSIQTPWIDDNPSTETAQAWNAGFLRGRAYGIDLLRTEGEHVEGATGETREESEDTESDGDDEDLPCIVSRGGPKVKRPPIFIRRLHRLLLMRAGKRTEQGKEVLEKARGSTYGTPRPPVPKPRPEVPQSDETATSHGSAQVPEPPTIHLAAQGMAYPLHEQHGMAPCPVAQAPPTPLPPVSPGDQLPGVFSDGRVACAPVPAPAGPIVRPWEPSLTQAAGQAFAPVRPQHMPVEPVPVPTVALERPVYPKPVRPAPPKIAMQGPGETSGIRRARERWRPAPWTPNPPRSPSQMSVRDRLARLRAEAQVKQASVEVQPPQLTQVSPQQPMEGPLVPEQQMFPGAPFSQVADVVRAPGVPAMQPQYFDLPLIQPISQGAPVAPLRASMGPVPPVPATQPQYFDIPLTEPINQGASAAHFLPQQPMEGPLVPEQWMFPGAALSQSVRPGVAQSQYFDLPLTQPINHGAPAAHFLHQPPMEGPWVPEQWMFQGAPPSQGTDVVQHQLDALGYTLHGLNHPGVPVSPAVNQYHLSQAAFGLPIDEDESGEGSDTSEPCEALDLSIHGRPCPQAPEWPVQEEGGQDATEVLDLSIHGRPRPRTPEWPVQGEGGQNVTGPETRRVVVSAVVHMCQDDEFPDLQDPPDEA
# B2: FLAG-EBNA3A full-length (i) (protein, UniProt P12977 1-944)
# chain: B1 chain
# B3: interferon regulatory factor 3 (IRF3), detected in HA-P300 immunoprecipitates of Figure 5D (protein, UniProt Q14653 1-427)
# chain: T1 sequence
# Biological target: T1, GFP-IRF3
# Test: co-IP; HEK293T transfected 24 h with GFP-IRF3 and RIG-I, Igepal lysis buffer; GFP-IRF3 precipitated with GFP-Trap beads, 1 h 4 °C; immunoblotting
row,Molecule,binding
1,B1,binds
2,B2,binds

# Biological target: HA-P300 (UniProt Q09472)
# Test: co-IP; HEK293T transfected 24 h, Igepal lysis buffer (150 mM NaCl, 50 mM Tris-HCl pH 8.0, 5 mM MgCl2, 0.8% Igepal CA-630); HA-P300 precipitated with anti-HA and ProtG beads, 1 h 4 °C; immunoblotting; RIG-I co-expressed in Figure 5D
row,Molecule,binding
1,B3,binds
2,B1,binds
3,B2,binds

# Biological target: HA-P300 (UniProt Q09472)
# Test: as above
# Remark: another data set of the same source
row,Molecule,binding
1,FLAG-EBNA3A truncation mutant ii (1-240) (from UniProt P12977 1-240) (domain or fragment),binds
2,FLAG-EBNA3A truncation mutant iii (1-523) (from UniProt P12977 1-523) (domain or fragment),binds
3,FLAG-EBNA3A truncation mutant iv (1-826) (from UniProt P12977 1-826) (domain or fragment),binds
4,FLAG-EBNA3A truncation mutant v (820-944) (from UniProt P12977 820-944) (domain or fragment),no binding
5,FLAG-EBNA3A truncation mutant vi (280-819) (from UniProt P12977 280-819) (domain or fragment),no binding
